Data as given in the supplement of paper PMC4967469.

Compound: COc1ncc(-c2ccc3nccc(-c4ccnnc4)c3c2)cc1NS(=O)(=O)c1ccc(F)cc1F [GSK2126458]
Assay: Viability of human cancer cell lines after 72 h of drug (GDSC screen)
Settings: top dose inferred
Protocol: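 Human cancer cell lines in 384-well plates, medium with 10% serum, drug for 72 h over a 256-fold dose range (nine 2-fold or five 4-fold steps up to the top dose). Adherent lines were fixed and stained with the nucleic acid dye Syto60, suspension lines read with resazurin; signal relative to control wells, capped at 0 and 100%. One two-parameter sigmoid per drug and line, fitted in a mixed model over all curves with the slope shared within a line.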

Cell Line | AUC | IC50 [nM]
HT-1080 (fibrosarcoma, adherent, top dose 0.128 µM) | 0.988 | > 128
HT-1197 (bladder, adherent, top dose 0.128 µM) | 0.903 | > 128
HT-1376 (bladder, adherent, top dose 0.128 µM) | 0.981 | > 128
HTC-C3 (thyroid, adherent, top dose 0.128 µM) | 0.792 | 66.1
HUTU-80 (digestive system, adherent, top dose 0.128 µM) | 0.395 | 4.35
HeLa (cervix, adherent, top dose 0.128 µM) | 0.916 | > 128
Hep 3B2_1-7 (liver, adherent, top dose 0.128 µM) | 0.898 | > 128
Hey (ovary, adherent, top dose 0.128 µM) | 0.864 | 102
Hs633T (fibrosarcoma, adherent, top dose 0.128 µM) | 0.758 | 37.1
Hs683 (glioma, adherent, top dose 0.128 µM) | 0.65 | 20.9
Hs746T (stomach, adherent, top dose 0.128 µM) | 0.75 | 54.9
Hs766T (pancreas, adherent, top dose 0.128 µM) | 0.892 | > 128
Hs939-T (melanoma, adherent, top dose 0.128 µM) | 0.926 | > 128
Hs940-T (melanoma, adherent, top dose 0.128 µM) | 0.809 | 84.7
Hs-445 (Hodgkin lymphoma, suspension, top dose 0.128 µM) | 0.429 | 5.21
Hs-578-T (breast, adherent, top dose 0.128 µM) | 0.986 | > 128
HuCCT1 (biliary tract, adherent, top dose 0.128 µM) | 0.612 | 16.9
HuH-7 (liver, adherent, top dose 0.128 µM) | 0.892 | > 128
HuO9 (osteosarcoma, adherent, top dose 0.128 µM) | 0.637 | 20
HuO-3N1 (osteosarcoma, adherent, top dose 0.128 µM) | 0.826 | 113
HuP-T3 (pancreas, adherent, top dose 0.128 µM) | 0.687 | 30.4
HuP-T4 (pancreas, adherent, top dose 0.128 µM) | 0.654 | 22
IA-LM (large cell lung carcinoma, adherent, top dose 0.128 µM) | 0.784 | 61.5
IGR-1 (melanoma, adherent, top dose 0.128 µM) | 0.85 | 79.2
IGR-37 (melanoma, adherent, top dose 0.128 µM) | 0.827 | 69.3
IHH-4 (thyroid, semi-adherent, top dose 0.128 µM) | 0.896 | 102
IM-95 (stomach, adherent, top dose 0.128 µM) | 0.48 | 7.02

Cell Line | AUC | IC50 [nM]
IMR-5 (neuroblastoma, adherent, top dose 0.128 µM) | 0.914 | > 128
IPC-298 (melanoma, adherent, top dose 0.128 µM) | 0.75 | 41.3
IST-MEL1 (melanoma, adherent, top dose 0.128 µM) | 0.612 | 17.3
IST-MES1 (mesothelioma, adherent, top dose 0.128 µM) | 0.956 | > 128
IST-SL1 (small cell lung carcinoma, semi-adherent, top dose 0.128 µM) | 0.831 | 84.1
IST-SL2 (small cell lung carcinoma, suspension, top dose 0.128 µM) | 0.62 | 17
J82 (bladder, adherent, top dose 0.128 µM) | 0.885 | > 128
JAR (urogenital system, adherent, top dose 0.128 µM) | 0.85 | 93.7
JEG-3 (urogenital system, adherent, top dose 0.128 µM) | 0.989 | > 128
JHH-1 (liver, adherent, top dose 0.128 µM) | 0.377 | 3.56
JHH-2 (liver, adherent, top dose 0.128 µM) | 0.737 | 40.3
JHH-4 (liver, adherent, top dose 0.128 µM) | 0.944 | > 128
JHH-6 (liver, adherent, top dose 0.128 µM) | 0.986 | > 128
JHH-7 (liver, adherent, top dose 0.128 µM) | 0.903 | > 128
JHOS-2 (ovary, adherent, top dose 0.128 µM) | 0.944 | > 128
JHOS-3 (ovary, adherent, top dose 0.128 µM) | 0.808 | 89.3
JHU-011 (head and neck, adherent, top dose 0.128 µM) | 0.646 | 20.2
JHU-022 (head and neck, adherent, top dose 0.128 µM) | 0.751 | 52.2
JIMT-1 (breast, adherent, top dose 0.128 µM) | 0.726 | 37.3
JJN-3 (haematopoietic neoplasm, suspension, top dose 0.128 µM) | 0.63 | 17
JM1 (B-cell lymphoma, suspension, top dose 0.128 µM) | 0.803 | 53
JSC-1 (B-cell lymphoma, suspension, top dose 0.128 µM) | 0.665 | 22.9
JURL-MK1 (chronic myeloid leukaemia, suspension, top dose 0.128 µM) | 0.867 | 115
JVM-2 (lymphoid neoplasm, suspension, top dose 0.128 µM) | 0.895 | > 128
JVM-3 (lymphoid neoplasm, suspension, top dose 0.128 µM) | 0.907 | > 128
JiyoyeP-2003 (Burkitt lymphoma, suspension, top dose 0.128 µM) | 0.869 | 94.5
K2 (melanoma, adherent, top dose 0.128 µM) | 0.817 | 99.8

Cell Line | AUC | IC50 [nM]
K5 (thyroid, adherent, top dose 0.128 µM) | 0.659 | 21.7
KALS-1 (glioma, adherent, top dose 0.128 µM) | 0.666 | 27.6
KARPAS-45 (lymphoblastic leukaemia, suspension, top dose 1.024 µM) | 0.211 | 11
KARPAS-231 (B-cell leukaemia, suspension, top dose 0.128 µM) | 0.146 | 0.954
KARPAS-299 (anaplastic large cell lymphoma, suspension, top dose 0.128 µM) | 0.877 | 91.8
KARPAS-422 (B-cell lymphoma, suspension, top dose 0.128 µM) | 0.436 | 5.38
KARPAS-620 (haematopoietic neoplasm, suspension, top dose 0.128 µM) | 0.494 | 7.73
KASUMI-1 (acute myeloid leukaemia, suspension, top dose 0.128 µM) | 0.173 | 0.811
KCL-22 (chronic myeloid leukaemia, suspension, top dose 0.128 µM) | 0.564 | 11.6
KE-37 (lymphoblastic leukaemia, suspension, top dose 1.024 µM) | 0.247 | 15
KELLY (neuroblastoma, adherent, top dose 0.128 µM) | 0.81 | 60.1
KG-1 (acute myeloid leukaemia, suspension, top dose 0.128 µM) | 0.643 | 19
KGN (ovary, adherent, top dose 0.128 µM) | 0.437 | 5.2
KINGS-1 (glioma, adherent, top dose 0.128 µM) | 0.759 | 61.1
KLE (endometrium, adherent, top dose 0.128 µM) | 0.769 | 78.1
KM12 (large intestine, adherent, top dose 1.024 µM) | 0.674 | 205
KM-H2 (Hodgkin lymphoma, suspension, top dose 0.128 µM) | 0.804 | 52.5
KMH-2 (thyroid, adherent, top dose 0.128 µM) | 0.6 | 14.5
KMOE-2 (acute myeloid leukaemia, suspension, top dose 0.128 µM) | 0.413 | 4.74
KMRC-1 (kidney, adherent, top dose 0.128 µM) | 0.975 | > 128
KMRC-20 (kidney, adherent, top dose 0.128 µM) | 0.966 | > 128
KMS-11 (myeloma, suspension, top dose 0.128 µM) | 0.911 | > 128
KMS-12-BM (myeloma, suspension, top dose 0.128 µM) | 0.44 | 5.66
KNS-42 (glioma, adherent, top dose 0.128 µM) | 0.893 | > 128
KNS-81-FD (glioma, adherent, top dose 0.128 µM) | 0.906 | > 128

By IC50 is meant the dose at which the fit gives 50% viability; a fit beyond the top or the lowest dose is shown as a bound at that dose. The AUC spans the tested range (256-fold, ending at the top dose) of the same fit; values near 1 show little effect. A top dose marked as inferred was derived from the fitted curves, not read from the paper.
